{"source": "the supplement of paper PMC8728848", "test_in_all_cases": "glycan array binding signal (z-score within array); higher = stronger binding", "conditions_in_all_cases": "glycan notation: IUPAC condensed, linker removed", "key": {"[1]": {"target": "Gal3S(b1-4)Glc", "procedure,_shortened": "(§1)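 The Consortium for Functional Glycomics database supplied 3228 glycan arrays, of which those lacking an available protein sequence were dropped. The binding signal, a within-array Z-score, was averaged across arrays of the same protein sequence and across linkers. Negative scores can be read as non-binding.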"}, "[2]": {"target": "Gal3S(b1-4)Glc6S", "procedure,_shortened": "as §1"}, "[3]": {"target": "Gal3S(b1-4)GlcNAc", "procedure,_shortened": "as §1"}, "[4]": {"target": "Gal3S(b1-4)[Fuc(a1-3)]Glc6S", "procedure,_shortened": "as §1"}, "[5]": {"target": "Gal3S(b1-4)[Fuc(a1-3)]GlcNAc", "procedure,_shortened": "as §1"}, "[6]": {"target": "Gal3S(b1-4)[Fuc(a1-3)]GlcNAc6S", "procedure,_shortened": "as §1"}, "[7]": {"target": "Gal3S4S(b1-4)GlcNAc", "procedure,_shortened": "as §1"}, "[8]": {"target": "Gal3S6S(b1-4)GlcNAc", "procedure,_shortened": "as §1"}, "[9]": {"target": "Gal3S6S(b1-4)GlcNAc6S", "procedure,_shortened": "as §1"}, "[10]": {"target": "Gal4S(b1-4)GlcNAc", "procedure,_shortened": "as §1"}, "[11]": {"target": "Gal4S6S(b1-4)GlcNAc", "procedure,_shortened": "as §1"}, "[12]": {"target": "Gal6P(b1-4)GlcNAc", "procedure,_shortened": "as §1"}, "[13]": {"target": "Gal6S(b1-3)GlcNAc", "procedure,_shortened": "as §1"}, "[14]": {"target": "Gal6S(b1-3)GlcNAc6S", "procedure,_shortened": "as §1"}, "[15]": {"target": "Gal6S(b1-4)Glc", "procedure,_shortened": "as §1"}, "[16]": {"target": "Gal6S(b1-4)Glc6S", "procedure,_shortened": "as §1"}, "[17]": {"target": "Gal6S(b1-4)GlcNAc", "procedure,_shortened": "as §1"}, "[18]": {"target": "Gal6S(b1-4)GlcNAc6S", "procedure,_shortened": "as §1"}, "[19]": {"target": "GalNAc(a1-3)Gal", "procedure,_shortened": "as §1"}, "[20]": {"target": "GalNAc(a1-3)GalNAc", "procedure,_shortened": "as §1"}, "[21]": {"target": "GalNAc(a1-3)GalNAc(b1-3)Gal(a1-4)Gal(b1-4)Glc", "procedure,_shortened": "as §1"}, "[22]": {"target": "GalNAc(a1-3)GalNAc(b1-3)Gal(a1-4)Gal(b1-4)GlcNAc", "procedure,_shortened": "as §1"}, "[23]": {"target": "GalNAc(b1-3)Gal", "procedure,_shortened": "as §1"}, "[24]": {"target": "GalNAc(b1-3)Gal(a1-4)Gal(b1-4)GlcNAc", "procedure,_shortened": "as §1"}, "[25]": {"target": "GalNAc(b1-3)Gal(a1-4)Gal(b1-4)GlcNAc(b1-3)Gal(b1-4)Glc", "procedure,_shortened": "as §1"}, "[26]": {"target": "GalNAc(b1-3)Gal(a1-6)Gal(b1-4)Glc", "procedure,_shortened": "as §1"}, "[27]": {"target": "GalNAc(b1-3)GalNAc", "procedure,_shortened": "as §1"}, "[28]": {"target": "GalNAc(b1-3)GlcNAc", "procedure,_shortened": "as §1"}, "[29]": {"target": "GalNAc(b1-4)Gal(b1-4)Glc", "procedure,_shortened": "as §1"}, "[30]": {"target": "GalNAc(b1-4)GlcNAc", "procedure,_shortened": "as §1"}, "[31]": {"target": "GalNAc(b1-4)GlcNAc(b1-2)Man", "procedure,_shortened": "as §1"}, "[32]": {"target": "GalNAc(b1-4)GlcNAc(b1-2)Man(a1-3)[GalNAc(b1-4)GlcNAc(b1-2)Man(a1-6)]Man(b1-4)GlcNAc(b1-4)GlcNAc", "procedure,_shortened": "as §1"}, "[33]": {"target": "GalNAc(b1-4)GlcNAc(b1-3)GalNAc(b1-4)GlcNAc", "procedure,_shortened": "as §1"}, "[34]": {"target": "GalNAc(b1-4)GlcNAc6S", "procedure,_shortened": "as §1"}, "[35]": {"target": "GalNAc(b1-6)GalNAc", "procedure,_shortened": "as §1"}, "[36]": {"target": "GalNAc3S(b1-4)GlcNAc", "procedure,_shortened": "as §1"}, "[37]": {"target": "GalNAc3S(b1-4)GlcNAc3S", "procedure,_shortened": "as §1"}, "[38]": {"target": "GalNAc3S(b1-4)[Fuc(a1-3)]GlcNAc", "procedure,_shortened": "as §1"}, "[39]": {"target": "GalNAc4S6S(b1-4)GlcNAc", "procedure,_shortened": "as §1"}, "[40]": {"target": "GalNAc6S(b1-4)GlcNAc", "procedure,_shortened": "as §1"}, "[41]": {"target": "Glc(a1-4)Glc", "procedure,_shortened": "as §1"}, "[42]": {"target": "Glc(a1-4)Glc(a1-4)Glc(a1-4)Glc", "procedure,_shortened": "as §1"}, "[43]": {"target": "Glc(a1-6)Glc(a1-6)Glc", "procedure,_shortened": "as §1"}, "[44]": {"target": "Glc(a1-6)Glc(a1-6)Glc(a1-6)Glc", "procedure,_shortened": "as §1"}, "[45]": {"target": "Glc(b1-4)Glc", "procedure,_shortened": "as §1"}}, "note": "The list shows a part of the results."}
{"binder": "Pwp4 (Candida glabrata) (protein) MGSSHHHHHHSSGLVPRGSHMASVGNPITVSNVCSFPKNWHRTAGFRALTARLGIGIQSDSYKELLNYPGTFQLTTQQSSTTKPNFQISGLVGNIYGLTIVPSYLLVELTGYFVPPVSGEYTFSLEGSDDAAIIFIANPSTFKCGHVEDWPTAYDNDVTVTESIHATRTIYMIEGVAYPIRIAYYNGLSLGKLQASFTDPEGVKRVDWNGYIWRYDSCDTCSYV", "values": [{"measurement": "glycan array binding signal (z-score)", "setting": "[1]", "result": -0.366}, {"measurement": "glycan array binding signal (z-score)", "setting": "[2]", "result": -0.85}, {"measurement": "glycan array binding signal (z-score)", "setting": "[3]", "result": 1.49}, {"measurement": "glycan array binding signal (z-score)", "setting": "[4]", "result": 0.255}, {"measurement": "glycan array binding signal (z-score)", "setting": "[5]", "result": -0.4}, {"measurement": "glycan array binding signal (z-score)", "setting": "[6]", "result": 0.089}, {"measurement": "glycan array binding signal (z-score)", "setting": "[7]", "result": -0.688}, {"measurement": "glycan array binding signal (z-score)", "setting": "[8]", "result": -0.464}, {"measurement": "glycan array binding signal (z-score)", "setting": "[9]", "result": -0.248}, {"measurement": "glycan array binding signal (z-score)", "setting": "[10]", "result": -0.694}, {"measurement": "glycan array binding signal (z-score)", "setting": "[11]", "result": -0.38}, {"measurement": "glycan array binding signal (z-score)", "setting": "[12]", "result": -0.453}, {"measurement": "glycan array binding signal (z-score)", "setting": "[13]", "result": -0.488}, {"measurement": "glycan array binding signal (z-score)", "setting": "[14]", "result": -0.036}, {"measurement": "glycan array binding signal (z-score)", "setting": "[15]", "result": -0.127}, {"measurement": "glycan array binding signal (z-score)", "setting": "[16]", "result": 0.19}, {"measurement": "glycan array binding signal (z-score)", "setting": "[17]", "result": -0.68}, {"measurement": "glycan array binding signal (z-score)", "setting": "[18]", "result": 0.077}, {"measurement": "glycan array binding signal (z-score)", "setting": "[19]", "result": 1.74}, {"measurement": "glycan array binding signal (z-score)", "setting": "[20]", "result": -0.108}, {"measurement": "glycan array binding signal (z-score)", "setting": "[21]", "result": -0.288}, {"measurement": "glycan array binding signal (z-score)", "setting": "[22]", "result": -0.39}, {"measurement": "glycan array binding signal (z-score)", "setting": "[23]", "result": -0.584}, {"measurement": "glycan array binding signal (z-score)", "setting": "[24]", "result": -0.311}, {"measurement": "glycan array binding signal (z-score)", "setting": "[25]", "result": -0.42}, {"measurement": "glycan array binding signal (z-score)", "setting": "[26]", "result": -0.526}, {"measurement": "glycan array binding signal (z-score)", "setting": "[27]", "result": -1.04}, {"measurement": "glycan array binding signal (z-score)", "setting": "[28]", "result": -0.408}, {"measurement": "glycan array binding signal (z-score)", "setting": "[29]", "result": -0.175}, {"measurement": "glycan array binding signal (z-score)", "setting": "[30]", "result": -0.202}, {"measurement": "glycan array binding signal (z-score)", "setting": "[31]", "result": -0.392}, {"measurement": "glycan array binding signal (z-score)", "setting": "[32]", "result": 0.13}, {"measurement": "glycan array binding signal (z-score)", "setting": "[33]", "result": 0.086}, {"measurement": "glycan array binding signal (z-score)", "setting": "[34]", "result": -0.423}, {"measurement": "glycan array binding signal (z-score)", "setting": "[35]", "result": -0.402}, {"measurement": "glycan array binding signal (z-score)", "setting": "[36]", "result": -0.515}, {"measurement": "glycan array binding signal (z-score)", "setting": "[37]", "result": 2.05}, {"measurement": "glycan array binding signal (z-score)", "setting": "[38]", "result": 0.219}, {"measurement": "glycan array binding signal (z-score)", "setting": "[39]", "result": 2.02}, {"measurement": "glycan array binding signal (z-score)", "setting": "[40]", "result": -0.377}, {"measurement": "glycan array binding signal (z-score)", "setting": "[41]", "result": -0.39}, {"measurement": "glycan array binding signal (z-score)", "setting": "[42]", "result": -0.384}, {"measurement": "glycan array binding signal (z-score)", "setting": "[43]", "result": -1.11}, {"measurement": "glycan array binding signal (z-score)", "setting": "[44]", "result": -0.446}, {"measurement": "glycan array binding signal (z-score)", "setting": "[45]", "result": -0.434}]}
